The whole screen tested about 310,000 compounds, of which about 2,200 (0.71%) showed an effect of 50% or more. Effects have a minus sign here. The list shows a part of the results.
target: human ether-à-go-go-related gene (hERG) potassium channel (human, UniProt Q12809); assay: primary screen, population patch clamp on CHO cells stably expressing hERG
Sequence (Q12809 whole entry, looked up): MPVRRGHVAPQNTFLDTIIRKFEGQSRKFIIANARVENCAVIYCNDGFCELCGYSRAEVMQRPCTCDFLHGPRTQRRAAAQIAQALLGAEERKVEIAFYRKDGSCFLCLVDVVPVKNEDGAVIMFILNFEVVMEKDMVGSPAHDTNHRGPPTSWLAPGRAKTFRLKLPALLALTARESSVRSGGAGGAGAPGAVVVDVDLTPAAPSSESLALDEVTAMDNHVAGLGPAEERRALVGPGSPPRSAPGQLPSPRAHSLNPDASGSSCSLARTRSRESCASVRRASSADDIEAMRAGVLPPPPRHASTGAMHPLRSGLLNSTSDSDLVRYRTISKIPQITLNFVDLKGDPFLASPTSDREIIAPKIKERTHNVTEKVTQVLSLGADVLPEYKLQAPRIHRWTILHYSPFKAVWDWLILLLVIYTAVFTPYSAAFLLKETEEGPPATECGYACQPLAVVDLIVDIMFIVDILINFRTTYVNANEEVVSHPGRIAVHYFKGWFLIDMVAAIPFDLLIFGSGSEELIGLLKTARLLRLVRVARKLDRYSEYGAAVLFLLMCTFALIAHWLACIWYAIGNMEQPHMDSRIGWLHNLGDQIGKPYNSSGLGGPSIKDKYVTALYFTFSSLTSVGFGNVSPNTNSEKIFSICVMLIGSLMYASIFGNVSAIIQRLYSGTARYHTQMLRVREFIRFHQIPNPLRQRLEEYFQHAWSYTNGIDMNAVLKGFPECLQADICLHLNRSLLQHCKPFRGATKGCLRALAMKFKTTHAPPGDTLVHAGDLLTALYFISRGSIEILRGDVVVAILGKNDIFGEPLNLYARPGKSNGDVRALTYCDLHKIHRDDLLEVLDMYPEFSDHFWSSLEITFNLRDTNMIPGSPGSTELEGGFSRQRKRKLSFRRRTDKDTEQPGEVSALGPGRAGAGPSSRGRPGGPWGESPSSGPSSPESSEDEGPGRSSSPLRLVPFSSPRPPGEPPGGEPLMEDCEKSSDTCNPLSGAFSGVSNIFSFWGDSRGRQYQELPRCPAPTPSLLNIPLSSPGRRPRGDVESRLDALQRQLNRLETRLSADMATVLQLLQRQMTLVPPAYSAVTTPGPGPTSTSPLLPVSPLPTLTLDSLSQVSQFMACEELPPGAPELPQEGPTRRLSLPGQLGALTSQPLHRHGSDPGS

Row | SMILES | hERG current change (%, negative = inhibition) at 1uM [%]
1 | CCCCn1c(N)c(N(CCOC)C(=O)c2ccc(COc3ccccc3)o2)c(=O)[nH]c1=O | 5.39
2 | CCOC(=O)N1CCN(C(=O)c2ccc(Cn3c(=S)[nH]c4cc(OCC)c(OCC)cc4c3=O)cc2)CC1 | 7.5
3 | COc1ccc(Cn2nnc3c(=O)[nH]c(C(=O)NCCc4ccc(F)cc4)nc32)cc1OC | 12.8
4 | CCSc1nnc(-c2ccc(S(=O)(=O)NCc3cccs3)cc2)o1 | -6.04
5 | CC(C)c1cccc(OCCCCN(C)C)c1.O=C(O)C(=O)O | 2.5
6 | COc1cc(OC)cc(-c2nc(-c3cccs3)no2)c1 | 11.8
7 | Cc1ccc(CC(=O)N2CCOCC2)cc1 | 6.52
8 | CCn1c(CCC(=O)Nc2cc(F)ccc2C)nc2cc(S(=O)(=O)N(C)C)ccc21 | 5.82
9 | Cc1cc(NC(=O)CSc2cn(CCNC(=O)c3ccccc3)c3ccccc23)no1 | 6.46
10 | COc1ccc(CCNC(=O)C2CCN(S(=O)(=O)c3cccc4nsnc34)CC2)cc1OC | 1.53
11 | CCOC(=O)C1(CC2CCCCO2)CCN(C(=O)Nc2ccc(C)c(C)c2)CC1 (stereo not drawn) | 11.8
12 | CCOC(=O)Nc1sc(C(=O)N(CC)CC)c(C)c1C(=O)OCC | 4.75
13 | O=S(=O)(NC1CCCCC1N1CCOCC1)c1ccc(Cl)cc1 (stereo not drawn) | 8.63
14 | Cc1cccc(NC(=O)c2ccco2)c1C | 17.6
15 | O=S(=O)(NCC(c1ccco1)N1CCc2ccccc2C1)c1ccc(F)cc1 (stereo not drawn) | 8.95
16 | COc1ccc(C2CC(=O)C3=C(C2)Nc2ccccc2N(C(=O)CCC(=O)O)C3c2ccc(F)cc2)cc1OC (stereo not drawn) | 12
17 | Cl.N=c1sccn1CC(=O)Nc1cccc(S(=O)(=O)N2CCCCCC2)c1 | -10.7
18 | O=C1/C(=C\c2ccco2)NC(=S)N1c1ccccc1 | 17.6
19 | CCc1ccccc1NC(=O)c1cc(S(=O)(=O)N2CCCC2)c[nH]1 | 6.11
20 | CC(C)C(=O)Nc1ccc(Nc2ccccc2)cc1 | -7.46
21 | O=C(On1c(-c2ccccc2)nc2ccccc2c1=O)c1ccco1 | 20.1
22 | O=S(=O)(NCc1ccccc1)c1ccc(-c2cnc(C3CC3)o2)cc1 | 12.1
23 | CCOC(=O)C1CCCN(C2=NC(=O)/C(=C/c3ccc(OC)cc3OC)S2)C1 (stereo not drawn) | 3.99
24 | COc1cccc(NC(=O)C(C)OC(=O)CCCNC(=O)c2ccc(Cl)cc2)c1 (stereo not drawn) | 10.7
25 | CCOc1ccc(/C(O)=C2/C(=O)C(=O)N(CCN(CC)CC)C2c2cccs2)cc1 (stereo not drawn) | 15.8
26 | CCCCC(=O)Nc1ccc(C(=O)Nc2ccc(OC)cc2[N+](=O)[O-])cc1 | 1.96
27 | C/C(=N\NC(=O)c1c(-c2ccccc2Cl)noc1C)c1cccc(NC(=O)C(C)C)c1 | -2.65

Row | SMILES | hERG current change (%, negative = inhibition) at 1uM [%]
28 | O=C(CSc1nnc(COc2ccccc2)n1Cc1ccco1)NCc1ccco1 | 10.7
29 | CC(C)(C)n1ncc2c(=O)n(CC(=O)OCc3ccccc3)cnc21 | 13.8
30 | CCN(CC)C(=O)CSc1ncnc2c1cnn2-c1ccccc1 | 4.56
31 | CCc1cc(C(=O)c2ccc(OC)cc2)c(NC(=O)CN2CCN(C)CC2)s1 | -5.96
32 | O=C(Nc1ccccc1N1CCN(c2ccc(F)cc2)CC1)C12CC3CC(CC(C3)C1)C2 | 0.695
33 | O=C(CSc1nnc(-c2cccs2)o1)OC1CCCCC1 | 11.3
34 | O=C(CSc1nnc(-c2ccco2)n1Cc1ccccc1)c1ccccc1 | 8.89
35 | Cc1nc(NC(=S)NC(=O)c2cccs2)sc1C(=O)N(C)C | 1.34
36 | O=C(Nc1ccccc1Cl)C1CC(=O)N(c2ccccc2)C1 (stereo not drawn) | 11.9
37 | CCOc1c(Br)cc(C(=O)OCC(=O)N2CCc3ccccc3C2)cc1OC | -2.17
38 | O=C(NC1(C(F)(F)F)C(=O)Nc2c1c(=O)[nH]c(=O)n2-c1ccccc1)c1cccnc1 (stereo not drawn) | 19
39 | O=C(c1ccco1)N1CCn2cccc2C1c1ccccc1 (stereo not drawn) | 1.77
40 | O=C1CN(S(=O)(=O)c2cccc(C(=O)O)c2)c2ccccc2N1 | 11.3
41 | O=C(CN1CCCCCC1)Nc1ccc([N+](=O)[O-])cc1Cl | 7.57
42 | COCc1[nH][nH]c(=O)c1/C=N/N1CCOCC1 | 7.34
43 | Nc1cc2sc(-c3ccc(C(=O)O)cc3)nc2cc1Cl | 17.5
44 | CCOC(=O)C1CCCN(S(=O)(=O)c2ccc(-n3cnnn3)c(C)c2)C1 (stereo not drawn) | 2.97
45 | CC(C)C(=O)N1CCN(c2ccc(NC(=O)c3ccc4c(c3)OCCO4)cc2)CC1 | 12.2
46 | Cc1sc2ncnc(NC(C)C(=O)O)c2c1C (stereo not drawn) | 11.8
47 | O=C(CN1CC(c2ccccc2)CC1=O)N/N=C/c1cc(Br)ccc1O (stereo not drawn) | -2.4
48 | C=CCn1c(=O)c(C(=O)NCc2ccc3c(c2)OCO3)c(O)c2ccccc21 | 17.6
49 | CC1CC(C)CN(S(=O)(=O)c2cccc(C(=O)N3C(=O)c4cccc(N)c4C3=O)c2)C1 (stereo not drawn) | 6.81
50 | COCCNC(=O)C(=O)NCCN1CCOCC1 | 11.6
51 | C=C1CCN([C@@H](CC(C)C)C(=O)NCc2ccc(Cl)c(Cl)c2)S(=O)(=O)c2ccccc21 | 14.9
52 | CC1(C)S[C@@H]2[C@H](NC(=O)COc3ccccc3)C(=O)N2C1C(=O)OCc1cc2ccccc2n1S(=O)(=O)c1ccccc1 (stereo partly drawn) | 3.86
53 | O=C(Oc1cc(=O)oc2c1c(=O)n1c3c(cccc23)CC1)c1ccc(F)cc1 | 4.95
54 | COc1cc(C2C3=C(CC(C)(C)CC3=O)NC3=C2C(=O)c2ccccc23)ccc1O (stereo not drawn) | 12.3
